Some of the results follow.

To fix the notation:
T1: UNK ZnF1-6 (called full-length) (human, UniProt Q9C0B0 30-357)
T1 sequence: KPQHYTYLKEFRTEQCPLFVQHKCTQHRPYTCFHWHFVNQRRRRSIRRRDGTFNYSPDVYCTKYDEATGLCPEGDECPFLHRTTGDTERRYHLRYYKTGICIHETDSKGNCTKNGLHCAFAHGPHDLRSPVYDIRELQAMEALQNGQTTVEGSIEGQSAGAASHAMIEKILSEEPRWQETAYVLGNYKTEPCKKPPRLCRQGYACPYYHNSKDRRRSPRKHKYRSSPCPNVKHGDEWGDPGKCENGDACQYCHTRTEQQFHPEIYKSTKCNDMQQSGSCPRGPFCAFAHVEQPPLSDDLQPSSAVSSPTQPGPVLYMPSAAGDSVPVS

B1: chr3:186789481:186789582:+|3pUTR|ENSG00000156976|msi1_unk|total|mutant (ssRNA)
RNA: GGGAGUUCUACAGUCCGACGAUCUUGGGGUGGGUAUAAAAGAUGGGGUCUGUAAAAUCUUUCUUUCUCCGAAAUUUAUUUCCCCGUUCUGCCGAAAUGGUUGUAUCCGAUGUUCUCUAUCAUUUAAUAAUAUACUUGUGGACUCAACAGAGGAUUGAGCAUCA
B2: chr5:80437677:80437780:+|CDS|ENSG00000039319|unk|FALSE|unique (ssRNA)
RNA: GGGAGUUCUACAGUCCGACGAUCUUCCUUUCAGGAAGAUAAGACUGUUAUAAAACAAUCUGCACAAGAAGACUCAAAAAGUUUAGACCUUAAGGAUAAUGAUGUAAUCCAAGAUUCCUCUUCAGCUUUACAUGUUUCCAGUAACAACAGAGGAUUGAGCAUCA
B3: chr15:34980028:34980129:-|3pUTR|ENSG00000198146|msi1|FALSE|unique (ssRNA)
RNA: GGGAGUUCUACAGUCCGACGAUCGGUUCUGUUAUUUAAGCCUGUUCUAAGUUUGAUCAAAUGGCAAUGACUAGGUCUAGUUUUAGUUUUUAUUUUUGCAGGAGUCUAUUGCUAAAGAAUUUUAUUUUGAUGCUUGUUAAAUUUCAACAGAGGAUUGAGCAUCA
B4: chr1:149903635:149903737:-|3pUTR|ENSG00000159164|unk|FALSE|unique (ssRNA)
RNA: GGGAGUUCUACAGUCCGACGAUCGGCUGCUUUCUUUGGUGCCCUCCCCUCACCCCACUGUAGCUGUGACGUGUUGUAGUUUUUAGAUGUUUGUAAAAUGUUUAAAAAAAUGUUAAAAGGAAAAAAGUGAAAAUAACAAAAAAGCAACAGAGGAUUGAGCAUCA
B5: chr16:82148161:82148730:-|three_prime_utr|ENSG00000135698|control|control|control (ssRNA)
RNA: GGGAGUUCUACAGUCCGACGAUCCCAGGGGUGCUUGGUGGAAGUCAGCAGGGCAUCUGGAGCUCAUCCCAAUGGUGUCUCUAUAGUUAUUAAUACUGUAACGUUUACUUGUAAAGAGAUUAUCAUUUUAGAAACAUGCUGUUUCAACAGAGGAUUGAGCAUCA
B6: chr6:144852070:144852171:+|3pUTR|ENSG00000152818|unk|total|mutant (ssRNA)
RNA: GGGAGUUCUACAGUCCGACGAUCAAGUCCUUAACCGUUCUUGAAACUCCCCGUUGUUUUCUUGUUGAAAGCAGACACACAUUCCGUGCACGGCUUAUUUUACCUUUCGGGUGAAAGAUCAGAUGUUUUUAUACCCUUCACUUGCAACAGAGGAUUGAGCAUCA
B7: ENSG00000107863:be:win_4801|CDS|ENSG00000107863|bound_else_gene|NA|bound_elsewhere_windowed (ssRNA)
RNA: GGGAGUUCUACAGUCCGACGAUCUCCAGUCGACUGAGCCCUGAGGUGCAAUCCGUGGCAGAGAGCAAGGGGGACGAGGCAGAUGACGAGAGAAGCGAACUCAUCAGUGAAGGGCGGCCUGUGGAAACCGACAGCGAGAGCGAGCAACAGAGGAUUGAGCAUCA
B8: chrX:17800420:17802010:-|CDS|ENSG00000131831|control|control|control (ssRNA)
RNA: GGGAGUUCUACAGUCCGACGAUCCUUCAGGGCUAUGACAUCAACAGCCAAGGGGAAGAGUCCAUGGGAAAUGCAGAGCCCCUUAGGAAACCCAUCAAAAACCGGAGCAUAAAGUUAAAGAAAGUGAACUCCCAGGAAAUACACCAACAGAGGAUUGAGCAUCA
B9: chr11:113276847:113276948:+|3pUTR|ENSG00000149294|msi1|FALSE|unique (ssRNA)
RNA: GGGAGUUCUACAGUCCGACGAUCAGAAGGGAAAAGCCAGCCCUUUGUAUAGAAAUUUUGCUUUUUUUUCCCUCAUUCUACUUUAGAACUGCAAGCUUGUGCACUGUGGAUGCGUGAAUAUUUUAGUGUGAAACGUGUUUUUGUCAACAGAGGAUUGAGCAUCA
B10: chr14:55048714:55048815:+|3pUTR|ENSG00000180008|msi1|FALSE|bound_elsewhere (ssRNA)
RNA: GGGAGUUCUACAGUCCGACGAUCUUUCUAAUUUUGAACAGAUGACUCAGUCCUAAAUCUUUGCCUUUAUUUCCUAUAAAAUGUAGGUGAUACUUGUAACUCGACUUCCUGGAGUUAAUUCUUCAGCAAGAGGUGACCCUGGGACAACAGAGGAUUGAGCAUCA
B11: chr7:111727939:111728040:-|3pUTR|ENSG00000128512|unk|total|mutant (ssRNA)
RNA: GGGAGUUCUACAGUCCGACGAUCAAGUGGUAAACCGUGAUAAAGACUCCUUUUGUACCUUUUUAUGUUCACUUUUUUUUAUACCGUUUAAUCUUAAAACCAAUACGAUAUUGUCAAACGAUACAAUGUGUGACAAUGUUGUAUCAACAGAGGAUUGAGCAUCA
B12: chr2:224001733:224001845:-|CDS|ENSG00000135919|unk|total|mutant (ssRNA)
RNA: GGGAGUUCUACAGUCCGACGAUCGGCCUCUGUGACGCUGCCUUCCAUCUGCUCCCACUUCAAUCCUCUGUCUCUCGAGGAACCCGGCUCCAACACGGGGAUCCAGGUUUUCAAUCAGAUUGUGAAGUCGAGGCCUCAUGACAACAACAGAGGAUUGAGCAUCA
B13: chr11:20121310:20121411:+|3pUTR|ENSG00000166833|msi1|FALSE|bound_elsewhere (ssRNA)
RNA: GGGAGUUCUACAGUCCGACGAUCAUUGUAACAUAGAAAUUGUAAAUAAUUGAUUAAAGUGCUGCAUUUUGAUGAAUUUUUUCUAGCCAUUUUUAAAGAGAAAACUAGGAAUUGAGUAUUUUGUGUACGGUAUGUUUCCAUCCUCAACAGAGGAUUGAGCAUCA
B14: chr7:127374855:127374969:-|CDS|ENSG00000048405|unk|FALSE|unique (ssRNA)
RNA: GGGAGUUCUACAGUCCGACGAUCCCUAGAAGCCAUAUAUCCAAGUGUGGACAAACGAGAAUAUAUUAUUAAGCUAGAACCCAUAGAAACUAAUCAAAAUGCAGUAUUUCAAUAUAUUUCGAGGACUGAUAAUCCUAUUGAAGUCAACAGAGGAUUGAGCAUCA

This assay deals with T1, UNK ZnF1-6 (called full-length). The experiment in a line: nsRBNS (natural sequence RNA bind-n-seq); RBNS binding buffer (assumed for nsRBNS): 25 mM Tris pH 7.5, 150 mM KCl, 3 mM MgCl2, 0.01% Triton X-100, 500 ug/ml BSA, 20 U/ml SUPERase-In, 4 C; UNK is unkempt and MSI1 is Musashi-1; names of the RNAs are library labels; protein concentration not given here; high values mean tight binding.
B1 had a binding signal of 1.45 enrichment R.

For B2, the binding signal was found to be 0.457 enrichment R.

The molecule B3 returned a binding signal of 9.54 enrichment R.

Consider B4, for which the binding signal was 0.96 enrichment R.

The molecule B5 returned a binding signal of 1.51 enrichment R.

In turn, B6 registered a binding signal of 0.349 enrichment R.

Molecule B7 registered a binding signal of 0.993 enrichment R.

Molecule B8 had a binding signal of 2.15 enrichment R.

On to B9, for which the binding signal is 1.38 enrichment R.

B10: the binding signal was 0.29 enrichment R.

Molecule B11 had a binding signal of 2.33 enrichment R.

The molecule B12 gave a binding signal of 0.666 enrichment R.

Turning to B13, the binding signal was 2.34 enrichment R.

In turn, B14 registered a binding signal of 18.1 enrichment R.

These data come from publication PMC12136788.
